Measurements reported in the supplement of paper PMC10126150.
Sequences with one replicate were seen in a single cluster, so their values are uncertain.

Tested on: ATP
Assay: switch fluorescence ratio, 500 uM ATP over buffer (Cy3 cluster intensity, sum of 5 cycles each) (fold (ratio)); higher = stronger signal-on switching upon ATP binding; sequences stand for … in TCGTCGGCAGCGTCAGATGTGTATAAGAGACAGTTTTTTTTTTTTTTTTTTTTTTTTT…TC
Details: aptamer strand: ATP DNA aptamer (quencher-CACCTGGGGGAGTATTGCGGAGGAAGG + anchor), 100 nM annealed; ATP concentration: 500 uM; one replicate
Procedure, shortened: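 Between each of five buffer/ATP cycles, the flow-cell was stripped with NaOH and re-annealed. Each cycle imaged Cy3-labelled switching-strand clusters, annealed to 100 nM quencher-labelled ATP aptamer on a modified Illumina MiSeq flow-cell, first in selection buffer and then after 15 min with 500 uM ATP at 22 °C. The fluorescence ratio is summed target-cycle over summed buffer-cycle Cy3 intensity per cluster, averaged per switch-domain sequence, with clusters outside 100-1000 RFU excluded.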
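Further: ATP exposure 15 min at 22 °C before imaging.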

Sequence: GGAAGGACGG
- switch fluorescence ratio: 0.999

Sequence: CTGAACCCTT
- switch fluorescence ratio: 1.03

Sequence: AGGCGTCTGG
- switch fluorescence ratio: 0.97

Sequence: ATAAGAGATG
- switch fluorescence ratio: 0.989

Sequence: GGGGGTGCCG
- switch fluorescence ratio: 1.07

Sequence: CAGACTTAAT
- switch fluorescence ratio: 1.06

Sequence: TTTTCCTCTA
- switch fluorescence ratio: 1.03

Sequence: AAATGACCTC
- switch fluorescence ratio: 1.03

Sequence: TAGTTAGTCT
- switch fluorescence ratio: 1.01

Sequence: GCTCTAGGGG
- switch fluorescence ratio: 1.05

Sequence: TACCTTTCTC
- switch fluorescence ratio: 1.02

Sequence: TACGATCCGG
- switch fluorescence ratio: 1.04

Sequence: CCAACCGCGA
- switch fluorescence ratio: 4.94

Sequence: CCTCGGCTTT
- switch fluorescence ratio: 3.09

Sequence: TTCAGGGCCT
- switch fluorescence ratio: 1.05

Sequence: GACATGGGAC
- switch fluorescence ratio: 1.03

Sequence: ATTTCAATCA
- switch fluorescence ratio: 0.971

Sequence: TCAAGCCAGT
- switch fluorescence ratio: 0.976

Sequence: CGTATTAGGG
- switch fluorescence ratio: 0.908

Sequence: GTCCGTTGC
- switch fluorescence ratio: 1.18

Sequence: GTACAGTATC
- switch fluorescence ratio: 1.11

Sequence: GAGTCCGTTT
- switch fluorescence ratio: 1.09

Sequence: ATTAGCCTAG
- switch fluorescence ratio: 1.01

Sequence: AGGTAGTTAC
- switch fluorescence ratio: 0.947

Sequence: TAGATTTGTC
- switch fluorescence ratio: 0.924

Sequence: ATACATAGTA
- switch fluorescence ratio: 1.1

Sequence: GCAGTGCAAC
- switch fluorescence ratio: 0.999

Sequence: GCCGATTAGT
- switch fluorescence ratio: 0.977

Sequence: GGCGCGTAGT
- switch fluorescence ratio: 1.26

Sequence: TTGTAGTAAG
- switch fluorescence ratio: 1

Sequence: ACGAGCGGGA
- switch fluorescence ratio: 1.03

Sequence: GTAATAACCA
- switch fluorescence ratio: 1.02

Sequence: TGCTGACTAA
- switch fluorescence ratio: 1.03

Sequence: CGTTCAAATG
- switch fluorescence ratio: 1.03

Sequence: AGGCCTAA
- switch fluorescence ratio: 0.975

Sequence: ATCTAGTGTG
- switch fluorescence ratio: 0.985

Sequence: ATAGGGTTGT
- switch fluorescence ratio: 1.03

Sequence: GGCCGCCGGT
- switch fluorescence ratio: 1.03

Sequence: TACCAGACGC
- switch fluorescence ratio: 1.24

Sequence: AGCTCTCGCG
- switch fluorescence ratio: 0.992

Sequence: CGTGACATCT
- switch fluorescence ratio: 0.997

Sequence: CTTTGTTCT
- switch fluorescence ratio: 1.02

Sequence: ACCACGCGCC
- switch fluorescence ratio: 1.19

Sequence: CTAACTTACG
- switch fluorescence ratio: 1.34

Sequence: TATACCATGC
- switch fluorescence ratio: 1.04

Sequence: GAGGGGACAA
- switch fluorescence ratio: 0.959

Sequence: CAATTGCCAG
- switch fluorescence ratio: 1.02

Sequence: TAATCATGGA
- switch fluorescence ratio: 0.948

Sequence: CAATCTGCTA
- switch fluorescence ratio: 1.1

Sequence: CTAACGAGGT
- switch fluorescence ratio: 1.01

Sequence: ATGGTATTCC
- switch fluorescence ratio: 0.996

Sequence: GCACGGTTGG
- switch fluorescence ratio: 1.01

Sequence: GTGAGAGGTT
- switch fluorescence ratio: 1.07

Sequence: CGCACGATCC
- switch fluorescence ratio: 1.86

Sequence: TGCATGCGAT
- switch fluorescence ratio: 1.02

Sequence: AAATCACCAG
- switch fluorescence ratio: 1.05

Sequence: CTGGAGTTAT
- switch fluorescence ratio: 1.49

Sequence: ATATAGGAA
- switch fluorescence ratio: 0.996

Sequence: ATAGGAGGAC
- switch fluorescence ratio: 1

Sequence: AGTTTCCACA
- switch fluorescence ratio: 1.04

Sequence: GATTGATATA
- switch fluorescence ratio: 1

Sequence: TCATGTATAT
- switch fluorescence ratio: 0.989

Sequence: AGGTGTCGTT
- switch fluorescence ratio: 1.04

Sequence: GCACGTTTAC
- switch fluorescence ratio: 1.28

Sequence: AAATTTCTCT
- switch fluorescence ratio: 0.986

Sequence: AAAGCGGGAA
- switch fluorescence ratio: 0.998

Sequence: TCATTTGCCC
- switch fluorescence ratio: 0.979

Sequence: GCATGGTTTA
- switch fluorescence ratio: 1.02

Sequence: CAAGTTTATA
- switch fluorescence ratio: 0.923

Sequence: ATGTTGCGAC
- switch fluorescence ratio: 1.05

Sequence: GGGAGACGCG
- switch fluorescence ratio: 1.01

Sequence: TACAAGTGGA
- switch fluorescence ratio: 1.03

Sequence: TTAAAGGCTA
- switch fluorescence ratio: 1

Sequence: TCGCCTCGAT
- switch fluorescence ratio: 1.02

Sequence: TGTCGCAAAG
- switch fluorescence ratio: 1.12

Sequence: TGACATGTGG
- switch fluorescence ratio: 0.983

Sequence: TCATAGGGAC
- switch fluorescence ratio: 1.06

Sequence: CGTCACCAGG
- switch fluorescence ratio: 4.15

Sequence: TAGACGCTCT
- switch fluorescence ratio: 1.05

Sequence: GAGAGGGCCA
- switch fluorescence ratio: 1.02

Sequence: AAGGCTTGT
- switch fluorescence ratio: 1.05

Sequence: GGTTTACTGC
- switch fluorescence ratio: 1.05

Sequence: GCCTGCGTGG
- switch fluorescence ratio: 1

Sequence: AGACACTTAT
- switch fluorescence ratio: 0.984

Sequence: GGGTATCATT
- switch fluorescence ratio: 0.955

Sequence: TAGTTACGTA
- switch fluorescence ratio: 1.11

Sequence: TTATTCCCCT
- switch fluorescence ratio: 1.05

Sequence: CTACGATGT
- switch fluorescence ratio: 1.01

Sequence: GATGGGGTCG
- switch fluorescence ratio: 0.955

Sequence: TCGAGGGGG
- switch fluorescence ratio: 1.05

Sequence: GAGCATTCAT
- switch fluorescence ratio: 1.01

Sequence: TCGCCATTTA
- switch fluorescence ratio: 0.986

Sequence: TTTCAAGTAA
- switch fluorescence ratio: 1.29

Sequence: TTTCTCACG
- switch fluorescence ratio: 1.06

Sequence: ACGTGAACGT
- switch fluorescence ratio: 1.04

Sequence: ATCGTAGAAA
- switch fluorescence ratio: 1.04

Sequence: GTGGGCTAAA
- switch fluorescence ratio: 0.995

Sequence: AAATCCTGTT
- switch fluorescence ratio: 1.18

Sequence: AATGAATCTC
- switch fluorescence ratio: 1.05

Sequence: CGCTGCCCCT
- switch fluorescence ratio: 1.03

Sequence: CGAGGGATAT
- switch fluorescence ratio: 1.12

Sequence: TTCGAGTGT
- switch fluorescence ratio: 0.962

Sequence: CTGGGGCCGG
- switch fluorescence ratio: 1.06

Sequence: ACTATTTGG
- switch fluorescence ratio: 1.01

Sequence: ACAAATAGGA
- switch fluorescence ratio: 1

Sequence: CACCTGTGCC
- switch fluorescence ratio: 1.04

Sequence: GGGGCACCA
- switch fluorescence ratio: 1.06

Sequence: TCCTAGTAGT
- switch fluorescence ratio: 1.02

Sequence: GATCCTGGTT
- switch fluorescence ratio: 1.07

Sequence: GCCGGGTGGG
- switch fluorescence ratio: 1

Sequence: TATTCGACGA
- switch fluorescence ratio: 1.05

Sequence: ATACGCCTCA
- switch fluorescence ratio: 1.09

Sequence: TTAGTCGAGT
- switch fluorescence ratio: 0.949

Sequence: GTAGTGCTAA
- switch fluorescence ratio: 0.965

Sequence: AGCGGGCATC
- switch fluorescence ratio: 1.02

Sequence: AGTGTACCTG
- switch fluorescence ratio: 1.05

Sequence: CCAATGCCAC
- switch fluorescence ratio: 1.81

Sequence: GAGGTCTGT
- switch fluorescence ratio: 0.963

Sequence: CGGGTTGGTG
- switch fluorescence ratio: 1.01

Sequence: TTCCAATTGG
- switch fluorescence ratio: 1.02

Sequence: TTAACTTGAT
- switch fluorescence ratio: 1.05

Sequence: GAAGCTGAGC
- switch fluorescence ratio: 1.05

Sequence: AATCATTGG
- switch fluorescence ratio: 1.02

Sequence: CCCAAGAGGC
- switch fluorescence ratio: 1.02

Sequence: TTCATAATCA
- switch fluorescence ratio: 0.978

Sequence: CAGTTGAGGG
- switch fluorescence ratio: 0.977

Sequence: TCGGTGGATT
- switch fluorescence ratio: 0.967

Sequence: CGTGAGCACG
- switch fluorescence ratio: 1.01

Sequence: ACCCCGTTCT
- switch fluorescence ratio: 1.04

Sequence: TCGGTAC
- switch fluorescence ratio: 1.11

Sequence: AGAGCTTAAT
- switch fluorescence ratio: 0.984

Sequence: TATCGTCGGT
- switch fluorescence ratio: 0.965

Sequence: CGCGTTTGTC
- switch fluorescence ratio: 1.07

Sequence: GCAAAGTCGG
- switch fluorescence ratio: 1

Sequence: ACGGACTGTG
- switch fluorescence ratio: 1.05

Sequence: ATCATAGTTT
- switch fluorescence ratio: 1.02

Sequence: AAGGTTCGTA
- switch fluorescence ratio: 0.979

Sequence: AAGCGCAGC
- switch fluorescence ratio: 1.03

Sequence: GATTTATGCC
- switch fluorescence ratio: 1.04

Sequence: CCTACATCTT
- switch fluorescence ratio: 1.02

Sequence: CACTAGAAGT
- switch fluorescence ratio: 1.01

Sequence: ATGTCCAAT
- switch fluorescence ratio: 0.995

Sequence: GAATTAACTC
- switch fluorescence ratio: 0.962

Sequence: GTTGATTGGT
- switch fluorescence ratio: 0.952

Sequence: GCGCGACCGT
- switch fluorescence ratio: 1.02

Sequence: TGAGACGGGT
- switch fluorescence ratio: 0.988

Sequence: GGGTAACGTC
- switch fluorescence ratio: 0.967

Sequence: AGCATGAGAG
- switch fluorescence ratio: 1.04

Sequence: GGAAAGCGTT
- switch fluorescence ratio: 1.03

Sequence: ATCAGGTTGC
- switch fluorescence ratio: 1.01

Sequence: CATGACCACG
- switch fluorescence ratio: 0.927

Sequence: CTGACCGCCG
- switch fluorescence ratio: 1.08

Sequence: ATCATGCCTT
- switch fluorescence ratio: 1.03

Sequence: TTTGGTCCCC
- switch fluorescence ratio: 1.01

Sequence: TAAACAGCC
- switch fluorescence ratio: 1.11

Sequence: TATAGTGTTA
- switch fluorescence ratio: 0.996

Sequence: GAAGCGTGTT
- switch fluorescence ratio: 1.08

Sequence: TCAGTCCCG
- switch fluorescence ratio: 1

Sequence: TTTCCTTTAC
- switch fluorescence ratio: 1.24

Sequence: GCCATGGCAA
- switch fluorescence ratio: 1.05

Sequence: CCATAGTGGG
- switch fluorescence ratio: 1.01

Sequence: TCGCAGTCTT
- switch fluorescence ratio: 1.03

Sequence: CTTCCATTAT
- switch fluorescence ratio: 1.07

Sequence: CTGCCTACTT
- switch fluorescence ratio: 1.06

Sequence: ACTGGTCAGA
- switch fluorescence ratio: 0.958

Sequence: TGAGGGAGTC
- switch fluorescence ratio: 0.996

Sequence: GGCGACTAG
- switch fluorescence ratio: 0.973

Sequence: AGGTTATCCT
- switch fluorescence ratio: 1

Sequence: TAGCATGAAT
- switch fluorescence ratio: 1.02

Sequence: TCAGAGATTA
- switch fluorescence ratio: 0.959

Sequence: TCGATTCATA
- switch fluorescence ratio: 1

Sequence: CCTGGCAAGC
- switch fluorescence ratio: 1.32

Sequence: TTCATGCGGA
- switch fluorescence ratio: 1.04

Sequence: GCTGTAACCG
- switch fluorescence ratio: 0.985

Sequence: CGGTCTGAGC
- switch fluorescence ratio: 0.991

Sequence: AACGACGTCG
- switch fluorescence ratio: 1.01

Sequence: GCATACCGGG
- switch fluorescence ratio: 1.06

Sequence: GGATTGCTGA
- switch fluorescence ratio: 0.994

Sequence: TTCCTGG
- switch fluorescence ratio: 0.99

Sequence: GACACCGACC
- switch fluorescence ratio: 1.8

Sequence: AATGCTTCGC
- switch fluorescence ratio: 0.976

Sequence: ACTACTCTG
- switch fluorescence ratio: 1.01

Sequence: CTTGGGACAG
- switch fluorescence ratio: 0.996

Sequence: ATGGTAGTCT
- switch fluorescence ratio: 1.03

Sequence: TATTCAGAC
- switch fluorescence ratio: 0.88

Sequence: AAACATGCCG
- switch fluorescence ratio: 1.06

Sequence: TTGGACACTT
- switch fluorescence ratio: 1.02

Sequence: GGTGCAGTCC
- switch fluorescence ratio: 1.01

Sequence: GTGGGGCGC
- switch fluorescence ratio: 1.02

Sequence: CGTAGGAATG
- switch fluorescence ratio: 1.01

Sequence: GGTTCCATGA
- switch fluorescence ratio: 0.993

Sequence: TCATCGATTC
- switch fluorescence ratio: 0.995

Sequence: CTCCGTCGTT
- switch fluorescence ratio: 1.38

Sequence: ATAGAATTTG
- switch fluorescence ratio: 1

Sequence: GTGTGTCGGC
- switch fluorescence ratio: 1.03

Sequence: TTGCTCGGTG
- switch fluorescence ratio: 0.983

Sequence: CTTCGGTAAT
- switch fluorescence ratio: 1.68

Sequence: TTTGAATTCC
- switch fluorescence ratio: 1.06

Sequence: TCCTCCATAT
- switch fluorescence ratio: 3.11

Sequence: TCTTGGGAGG
- switch fluorescence ratio: 1.05

Sequence: TACGGAGGTT
- switch fluorescence ratio: 0.965
